Assay results taken from ChEMBL document CHEMBL1201862, “PubChem BioAssay data set” (2004).
Structures can show the parent of a compound that is named as a salt.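 Method: 48-hour compound exposure of cells in 96-well plates, five concentrations, linear interpolation of endpoints. GI50 marks 50% less growth.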 Activity calls are given as the source filed them. Cut-off read from the data, not from the text of the source: active = GI50 up to about 1.1 µM and inactive = higher.

Test system: NCI-H322M
Assay: NCI anticancer screen, dose series, 48 h

Row | SMILES | GI50
1 | O=C(CCCN1CCC(O)(c2ccc(Cl)cc2)CC1)c1ccc(F)cc1 [HALOPERIDOL] | inactive: 25.1 µM
2 | CC1=NCCc2c1[nH]c1cc(O)ccc21 [HARMALOL HYDROCHLORIDE] | inactive: > 100 µM
3 | COC(=O)C[C@](O)(CCC(C)(C)O)C(=O)O[C@@H]1C(OC)=C[C@]23CCCN2CCc2cc4c(cc2[C@H]13)OCO4 [HARRINGTONINE] | active: 0.311 µM
4 | C[C@@]12CCC(=O)c3coc(c31)C(=O)c1cc3c(cc12)C(=O)C=CC3=O [HELENAQUINONE] | inactive: > 92.3 µM
5 | C=C1C(=O)O[C@@H]2C[C@@]3(C)CCC[C@H](C)C3=C[C@H]12 [HELENINE] | inactive: 15.8 µM
6 | COc1cc(-c2cc(=O)c3c(OC)c(OC)c(OC)c(OC)c3o2)cc(OC)c1OC [HEPATAMETHOXYFLAVONE] | inactive: 58.9 µM
7 | COc1nc(N(C)C)nc2c1[n+](C)cn2C [HETEROMINE A] | inactive: > 100 µM
8 | CC(=O)NCCCCCCNC(C)=O [HEXAMETHYLENEBISACETAMIDE] | inactive: 6980 µM
9 | CCN(CC)CCNc1ccc(CO)c2sc3ccccc3c(=O)c12 [HYCANTHONE] | inactive: 11.8 µM
10 | NS(=O)(=O)c1cc2c(cc1Cl)NCNS2(=O)=O [HYDROCHLOROTHIAZIDE] | inactive: > 100 µM
11 | C[C@]12CCC(=O)C=C1CC[C@@H]1[C@@H]2[C@@H](O)C[C@@]2(C)[C@H]1CC[C@]2(O)C(=O)CO [HYDROCORTISONE] | inactive: > 100 µM
12 | CC[C@@]1(O)C(=O)OCc2c1cc1n(c2=O)Cc2cc3cc(O)ccc3nc2-1 [HYDROXYCAMPTOTHECIN] | active: 0.107 µM
13 | NC(=O)NO [HYDROXYUREA] | inactive: 2110 µM
14 | Cc1cc(=O)oc2cc(O)ccc12 [HYMECROMONE] | inactive: > 100 µM
15 | Cc1cc(O)no1 [HYMEXAZOL] | inactive: > 100 µM
16 | C[C@H](CCC(=O)O)[C@H]1CC[C@H]2[C@@H]3[C@H](O)[C@H](O)[C@@H]4C[C@H](O)CC[C@]4(C)[C@H]3CC[C@]12C [HYOCHOLIC ACID] | inactive: > 100 µM
17 | COC[C@@H]1Cc2cc(OC)c3c(c2[C@H](c2ccc(OC)c(OC)c2)[C@H]1COC)OCO3 [HYPOPHYLLANTHIN] | inactive: > 100 µM
18 | O=P1(NCCCl)OCCCN1CCCl (stereo not drawn) [IFOSFAMIDE] | inactive: 406 µM
19 | CC1=C2C(=CC(C)(C)[C@@H]2O)C(=O)[C@](C)(O)C12CC2 [ILLUDIN M] | active: 0.0771 µM

Row | SMILES | GI50
20 | N=C1NC(=O)N2CC12 (stereo not drawn) [IMEXON] | inactive: > 100 µM
21 | CC(C)[C@](O)(C(=O)OCC1=CC[N+]2([O-])CC[C@@H](O)[C@@H]12)[C@H](C)O (stereo partly drawn) [INDICINE N-OXIDE] | inactive: > 10000 µM
22 | O=Nc1c(-c2c(O)[nH]c3ccccc23)[nH]c2ccccc12 [INDIRUBIN-3-MONOXIME] | inactive: 4.72 µM
23 | O[C@H]1[C@H](O)[C@@H](O)[C@H](O)[C@@H](O)[C@H]1O [INOSITOL] | inactive: > 1000 µM
24 | CC(C)=CCC[C@@H](C)C1=CC(=O)C(C)=C(O)C1=O [ISOPEREZONE] | inactive: 13 µM
25 | COc1c2ccoc2c(OC)c2oc(=O)ccc12 [ISOPIMPINELLIN] | inactive: > 100 µM
26 | C/C=C1/CN2[C@@H](C3=C[C@@H]4[C@@H]5N(C3=O)c3ccccc3[C@@]53CCN5C/C(=C/C)[C@@H]4C[C@H]53)C[C@@]34c5ccccc5N5C(=O)CC=C([C@H]1C[C@H]23)[C@H]54 [ISOSUNGUCINE] | inactive: 6.32 µM
27 | C/C1=C\[C@H](C)C[C@H](C)OC(=O)C[C@H](c2ccc(O)cc2)NC(=O)[C@@H](Cc2c(Br)[nH]c3ccccc23)N(C)C(=O)[C@H](C)NC(=O)[C@@H](C)C1 [JASPAMIDE] | active: 0.834 µM
28 | Oc1cnc2c(O)cccc2c1 [JINEOL] | inactive: 35.3 µM
29 | C=C(C)[C@H]1C2=CC(C)=C(O2)[C@@H](O)[C@H](C(=C)C)CCC2=C[C@H]1OC2=O [KALLOLIDE A] | inactive: > 100 µM
30 | O=C1Cc2c([nH]c3ccc(Br)cc23)-c2ccccc2N1 [KENPAULLONE] | inactive: > 100 µM
31 | COc1cc(CO)cc2c1[nH]c1ccccc12 [KOENOLINE] | inactive: > 25 µM
32 | CC1(C)CCC2=C(O1)c1ccccc1C(=O)C2=O [LAPACHONE] | active: 0.946 µM
33 | C/C1=C\[C@@H](O)C(=O)/C=C/C=C\c2csc(n2)[C@@H](C)NC(=O)C[C@@]2(CC1)[S+]([O-])SC(=O)[C@]2(C)O (stereo partly drawn) [LEINAMYCIN] | active: 0.124 µM
34 | Nc1nc(=O)c2c([nH]1)NCC(CNc1ccc(C(=O)N[C@@H](CCC(=O)O)C(=O)O)cc1)N2C=O (stereo partly drawn) [LEUCOVORIN CALCIUM] | inactive: > 125 µM
35 | c1ccc([C@H]2CN3CCSC3=N2)cc1 [LEVAMISOLE HYDROCHLORIDE] | inactive: > 100 µM
36 | COC(=O)c1ccc(O)c2nc3c(C=O)c(O)cc(O)c3nc12 [LOMOFUNGIN] | inactive: 2 µM
37 | CC[C@H](C)C(=O)O[C@H]1C[C@@H](C)C=C2C=C[C@H](C)[C@H](CC[C@@H]3C[C@@H](O)CC(=O)O3)[C@H]21 [LOVASTATIN] | inactive: > 30 µM
38 | O[C@H]1[C@H]2c3cc4c(cc3CN3CCC(=C[C@@H]1O)[C@H]23)OCO4 [LYCORINE] | inactive: 1.43 µM
